The test system of one series is MB49 cells. The experiment in a line: MB49 syngeneic murine bladder cancer model. Conditions: C57BL/6 mice, 21 days after initiation of treatment; Dunnett's test. The series is classed as in vivo, mouse.
Another series concerns J774A.1 cells. The experiment in a line: Pyroptosis (LDH release) in J774 mouse macrophage cell line. The following applies: 1 μM, 24 hours. In kind it is cell-based.
The test system of series [1] is T cell response (BMDC co-cultured with allogenic CD4+ T cells). The experiment in a line: Mouse mixed lymphocyte reaction (MLR) assay. In kind it is cell-based. The following applies: ELISA of supernatant after 3 days of culture, in comparison to isotype control or SQTGly Fc.
Series [2] relates to A375 tumors expressing human PD-L1. The experiment in a line: Biodistribution by fluorescence imaging in A375 mouse xenograft model. The series is classed as in vivo.
The target of series [3] is T1, human PD-L1 Fc (R&D Systems) chimeric protein (human, UniProt Q9NZQ7 part only).
T1 construct: Bought reagent; also called human PD-L1 Fe; not shown: Fc part of the bought R&D Systems chimera
The experiment in a line: binding ELISA on plate-coated human PD-L1 Fc (as in Example 10).

A further series concerns the target T2, human PD-L1 Fc (Homo sapiens, UniProt Q9NZQ7).
T2 construct: purchased R&D Systems
Kind of series: PD-L1 binding ELISA. The following applies: IRDye 800CW conjugate compared with parental molecule.

The target in another series is T3, PD-1/PD-L1 interaction (Homo sapiens, UniProt Q9NZQ7).
T3 construct: host or cells: PD-L1 aAPC/CHO-K1 cells and Jurkat T cells (NFAT-RE luciferase)
Kind of series: PD-1/PD-L1 cell-based blockade assay (Promega, NFAT reporter). The following applies: Jurkat PD-1 NFAT-luciferase cells co-cultured with PD-L1 aAPC/CHO-K1 cells.

The test system of series [4] is humanized PD-L1 MC38 tumour cell line. The experiment in a line: Humanised PD-L1 MC38 syngeneic model of colorectal cancer. The series is classed as in vivo, mouse. The following applies: C57BL/6 mice, 10 mg/kg IP twice a week for 3 weeks; control SQTgly Fc.

T2 sequence (Q9NZQ7 with tags, fused parts or gaps limits assumed): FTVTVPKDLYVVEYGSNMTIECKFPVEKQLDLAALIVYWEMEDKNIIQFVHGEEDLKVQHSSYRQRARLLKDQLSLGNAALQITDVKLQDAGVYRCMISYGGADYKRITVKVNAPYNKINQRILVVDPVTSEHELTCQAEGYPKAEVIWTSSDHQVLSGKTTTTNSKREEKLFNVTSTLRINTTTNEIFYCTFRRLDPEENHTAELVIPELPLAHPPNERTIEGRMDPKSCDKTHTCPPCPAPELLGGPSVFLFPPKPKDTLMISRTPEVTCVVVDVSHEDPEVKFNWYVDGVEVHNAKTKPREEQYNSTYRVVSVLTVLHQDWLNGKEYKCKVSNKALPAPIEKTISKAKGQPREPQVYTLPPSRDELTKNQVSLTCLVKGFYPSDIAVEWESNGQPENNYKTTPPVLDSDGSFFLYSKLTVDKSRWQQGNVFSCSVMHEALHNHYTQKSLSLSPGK
T3 sequence (Q9NZQ7 19-290): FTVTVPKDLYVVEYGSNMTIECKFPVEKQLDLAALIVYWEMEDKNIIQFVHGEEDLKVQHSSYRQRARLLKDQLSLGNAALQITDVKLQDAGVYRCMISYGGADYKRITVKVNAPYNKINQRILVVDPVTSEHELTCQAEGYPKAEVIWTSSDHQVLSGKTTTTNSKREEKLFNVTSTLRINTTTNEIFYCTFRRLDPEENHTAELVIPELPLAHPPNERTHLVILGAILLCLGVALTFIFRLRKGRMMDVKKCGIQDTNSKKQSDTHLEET

B1: AVA04-182 Fc (Fc fusion)
chain: IPRGLSEAKPATPEIQEIVDKVKPQLEEKTGETYGKLEAVQYKTQVLAFALPEFEYMSTNYYIKVRAGDNKYMHLKVFNGPPMIRRKNEVADRVLTGYQVDKNKDDELTGFLHAAAGGGGSGGGGSGGGGSGGGGS[sequence of human IgG1 Fc omitted]
notes: Produced in Expi293F cells; also called AVA04-182 Fc fusion protein
Take B1: the Tumor growth entry in the series on MB49 cells was “No significant difference”. Besides, the “LDH release in the presence of rhFAPα” value in the series with J774A.1 cells (25 nM rhFAPα) is “did not produce LDH release”. The “LDH release in the absence of rhFAPα” value with J774A.1 cells (no rhFAPα) was “did not produce LDH release”. In addition, in series [1], the IFNγ secretion result was “increase”. Besides, in series [1] (data not shown), the IL-2 secretion result is listed as “increase”.

B2: AVA04-251 Fc-800 (Fc fusion)
chain: IPRGLSEAKPATPEIQEIVDKVKPQLEEKTGETYGKLEAVQYKTQVLAREGRQDWVLSTNYYIKVRAGDNKYMHLKVFNGPWVPFPHQQLADRVLTGYQVDKNKDDELTGFAAAGGGGSGGGGSGGGGSGGGGS[sequence of human IgG1 Fc omitted]
modifications: IRDye800CW conjugated with NHS chemistry to accessible amino groups (4:1 dye:protein in the reaction)
notes: also called dye-conjugated Affimer
Regarding B2, the Tumor penetration result in series [2] (0.1 nmoles iv, tumour dissected 26 hours post-dose) is listed as “Tumor penetration of the dye-conjugated Affimer was demonstrated”. Besides, in series [2] (0.5 nmoles iv, 26-hour timepoint), the “Biodistribution (tumor targeting)” value is reported as “targeting of the anti-PD-L1 Affimer to the tumor”. This molecule showed a concentration for a half-maximal effect (EC50) in series [3] of 0.02 nM. In the series with human PD-L1 Fc, the “EC50 of binding to human PD-L1, conjugated versus unconjugated Affimer” value is reported as “comparable EC50 values”.

B3: AVA04-251 Fc: anti-PD-L1 Affimer Fc fusion protein (SEQ ID No. 117), binds human PD-L1 (protein)
chain: IPRGLSEAKPATPEIQEIVDKVKPQLEEKTGETYGKLEAVQYKTQVLAREGRQDWVLSTNYYIKVRAGDNKYMHLKVFNGPWVPFPHQQLADRVLTGYQVDKNKDDELTGFAAAGGGGSGGGGSGGGGSGGGGS[sequence of human IgG1 Fc omitted]
Regarding B3, the “Blockade of PD-1/PD-L1 interaction (NFAT-RE-mediated luminescence)” value with PD-1/PD-L1 interaction was “blocks the PD-1/PD-L1 interaction”. The “Tumour size compared to the control” value in series [4] was “reduced tumour size”.

The record behind these values is patent publication US20210353652A1, “TUMOR MICROENVIRONMENT-ACTIVATED DRUG-BINDER CONJUGATES, AND USES RELATED THERETO” (Trustees of Tufts College, priority 2018, published 2021).
